Results on 89 compounds are retold here after PMC4336329 (PLoS ONE, 2015).

Each structure is given as a SMILES string. Out of some 310,000 compounds screened, about 2,200 (0.71%) showed an effect of 50% or more. The effect is printed as a negative number. The list shows a part of the results.

The assay deals with human ether-à-go-go-related gene (hERG) potassium channel (human, UniProt Q12809). The experiment in a line: primary screen, population patch clamp on CHO cells stably expressing hERG.
Sequence of human ether-à-go-go-related gene (hERG) potassium channel (Q12809 whole entry, looked up): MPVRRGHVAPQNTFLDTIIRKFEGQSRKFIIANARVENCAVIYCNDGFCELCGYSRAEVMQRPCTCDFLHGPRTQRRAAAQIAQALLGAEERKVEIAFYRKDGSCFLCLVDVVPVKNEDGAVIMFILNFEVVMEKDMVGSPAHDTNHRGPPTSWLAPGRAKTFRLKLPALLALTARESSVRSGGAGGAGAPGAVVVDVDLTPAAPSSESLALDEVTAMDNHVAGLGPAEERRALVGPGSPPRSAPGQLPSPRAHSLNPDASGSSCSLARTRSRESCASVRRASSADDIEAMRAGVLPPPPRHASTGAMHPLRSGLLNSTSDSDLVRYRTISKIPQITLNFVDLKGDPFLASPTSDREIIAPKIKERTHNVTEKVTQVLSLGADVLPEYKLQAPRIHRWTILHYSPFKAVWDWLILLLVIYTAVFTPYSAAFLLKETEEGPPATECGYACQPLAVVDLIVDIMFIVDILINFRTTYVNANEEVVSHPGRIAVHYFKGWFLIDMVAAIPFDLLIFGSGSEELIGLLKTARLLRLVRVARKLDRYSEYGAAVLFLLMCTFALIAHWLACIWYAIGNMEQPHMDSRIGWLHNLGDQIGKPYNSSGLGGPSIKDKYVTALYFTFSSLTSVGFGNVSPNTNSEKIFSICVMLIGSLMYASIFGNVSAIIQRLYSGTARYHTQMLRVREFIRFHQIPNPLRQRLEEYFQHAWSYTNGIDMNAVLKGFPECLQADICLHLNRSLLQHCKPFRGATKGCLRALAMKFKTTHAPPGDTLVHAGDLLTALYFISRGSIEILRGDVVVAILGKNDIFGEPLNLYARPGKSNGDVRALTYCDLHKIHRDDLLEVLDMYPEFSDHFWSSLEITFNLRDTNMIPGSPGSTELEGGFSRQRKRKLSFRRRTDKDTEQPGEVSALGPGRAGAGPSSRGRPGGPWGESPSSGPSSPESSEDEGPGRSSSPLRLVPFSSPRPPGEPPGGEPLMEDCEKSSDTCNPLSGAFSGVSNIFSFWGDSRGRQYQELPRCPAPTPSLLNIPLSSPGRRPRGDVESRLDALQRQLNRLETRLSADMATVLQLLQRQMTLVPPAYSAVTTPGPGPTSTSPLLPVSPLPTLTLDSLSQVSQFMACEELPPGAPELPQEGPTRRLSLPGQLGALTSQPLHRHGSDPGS
Take `O=C(O)CNC(=O)C12CC3CC(CC(Cl)(C3)C1)C2`: the “hERG current change (%, negative = inhibition) at 1uM” value turned out to be 9.46%. The value for `O=C(CCNC(=O)N1CCn2c1nc1ccccc12)NCc1ccccc1` was 15.4%. For `Cc1ccc(N=Nc2c(N)nn(-c3ccccc3)c2N)cc1` the value was 5.45%; for `COCCn1cc(C(=O)NCCCN2CCC(C)CC2)c2c3ccccc3n(C)c2c1=O`, 3.23%; for `O=C(Cn1c(=O)oc2ccccc21)Nc1ccc2c(c1)OCCO2`, 1.2%. Take `COc1ccc(CCNC(=O)COC(=O)c2ccc(N3CCCC3=O)cc2)cc1`: the “hERG current change (%, negative = inhibition) at 1uM” value is reported as 8.56%.

Consider `O=S(=O)(NCCc1ccc(F)cc1)c1cccc2cccnc12`, for which the “hERG current change (%, negative = inhibition) at 1uM” value came to 8.85%. As for `CCn1c(SCC(=O)c2c(N)n(C)c(=O)n(C)c2=O)nnc1-c1ccccc1`, the “hERG current change (%, negative = inhibition) at 1uM” value came out at 14.2%. The value for `O=C(NNS(=O)(=O)c1ccccc1)c1cnn(-c2ccc(Cl)cc2)c1C(F)(F)F` was 9.22%; that for `Nc1nonc1C(=O)N1CCCC1` was 7.85%.

Turning to `COC(CN(C)C(=O)C1CCC(CNS(=O)(=O)c2ccc(C)cc2)CC1)OC` (centres unmarked), the “hERG current change (%, negative = inhibition) at 1uM” value was determined as 9.91%. For `Cc1cc(C)c(C(=O)COC(=O)Cn2cnnn2)cc1C` the value was -5.32%; for `Cc1ccc(S(=O)(=O)Nc2cc(-c3ccccc3)nn2C)cc1`, 15.2%. Regarding `COc1cccc(C2(O)CCN(CC(=O)Nc3nc(C)cs3)CC2)c1`, the “hERG current change (%, negative = inhibition) at 1uM” value is reported as 6.84%. For `CC1CN(c2cc(=O)n(-c3ccccc3)c(=O)[nH]2)CC(C)O1` (centres unmarked) the value was 7.71%; for `O=C(OCC(=O)c1ccco1)c1ccc2ncsc2c1`, 2.76%; for `O=S(=O)(NCCS(=O)(=O)N1CCN(c2ccccc2)CC1)c1ccc(F)cc1`, 4.93%. The value for `NC(=O)CC(NC(=O)Cc1ccc(Br)cc1)c1ccc(NCCN2CCCC2)c([N+](=O)[O-])c1` (centres unmarked) was -7.71%.

`CCCc1[nH]nc2c1C(c1ccc(OC)c(CSC3=NCCS3)c1)C(C#N)=C(N)O2` (centres unmarked): the “hERG current change (%, negative = inhibition) at 1uM” value was -0.0834%. The value for `CC(CC(=O)NCc1ccc(Cl)cc1)S(=O)(=O)c1ccc2c(c1)NC(=O)CO2` (centres unmarked) was -3.77%; that for `COc1ccc(CCNC(=O)c2ccc3nc(-c4ccco4)c(-c4ccco4)nc3c2)cc1OC` was 5.6%; that for `COc1ccc([N+](=O)[O-])cc1NC(=O)c1cn(-c2ccc(Cl)cc2)c(=O)c2ccccc12` was 12.1%. The value for `C=Cc1ccc2c(c1)OCCOCCOCCOCCOCCO2` was -70.2%. With `Clc1nc(-c2cccnc2)nc2scc(-c3ccccc3)c12`, the “hERG current change (%, negative = inhibition) at 1uM” value is recorded as 14%.

Take `CS(=O)(=O)N(CC(=O)N1CCC(C(N)=O)CC1)c1cc(C(F)(F)F)ccc1Cl`: the “hERG current change (%, negative = inhibition) at 1uM” value stood at 14.5%. The value for `NC(=O)N/N=C/c1sc(N2CCCCC2)nc1-c1cccs1` was 2.09%; that for `O=C(NCC(c1ccco1)N1CCCC1)c1ccc(Cl)cc1` (centres unmarked) was -3.7%. The value for `O=C(CN1C(=O)c2cccc3cccc(c23)C1=O)N1CCCCC1` was 9.42%; that for `CCOc1ccc(NC(=O)CC2C(=O)N(c3ccccc3)C(=O)N2CCc2cccs2)cc1` (centres unmarked) was 8.68%; that for `Cc1ccc(-n2nc3c(n2)/C(=N/O)CC/C3=N\O)cc1` was 5.06%. For the compound `CCCOc1ccc2c3c(c(=O)oc2c1)CCCC3`, the “hERG current change (%, negative = inhibition) at 1uM” value was found to be 0.385%. For `c1ccc(C2[C@H]3CN(Cc4cccnc4)[C@H](c4ccccc4)C34CC2(c2ccccc2)C4)cc1` (some centres unmarked) the value was 0.165%; for `Cc1ccsc1C(=O)C1CCCN(Cc2cccc(OCCO)c2)C1` (centres unmarked), 0.385%. The value for `CCCCN(CCCC)Cc1ccc(C(=O)NN)o1` was 6.48%. For `CC(C)c1ccc(CN(C(=O)c2cccs2)C2CCS(=O)(=O)C2)cc1` (centres unmarked) the value was -1.45%. Regarding `COc1cc2[nH]c(=S)n(C3CCCC3)c(=O)c2cc1OC`, the “hERG current change (%, negative = inhibition) at 1uM” value worked out at 12.5%. The value for `C1COCCO1.Cc1onc(-c2ccccc2)c1C(=O)Nc1ccccc1C#N` was 8.48%; that for `O=S(=O)(/N=C(/Nc1ccccc1F)c1ccccc1)c1ccccc1` was 6.69%; that for `CCN(CC)CCCOC(=O)C(c1ccccc1)c1ccccc1.Cl` was -29.3%. For `CCC1C(=O)CC(c2ccccc2)NC1c1ccccc1` (centres unmarked) the value was 5.67%. The value for `Cn1c(=O)c2c(SCc3ccccc3)nc(C3CC3)nc2n(C)c1=O` was 3.04%.

On to `CC1CCC(n2c(=S)[nH]c3ccccc3c2=O)CC1` (centres unmarked), for which the “hERG current change (%, negative = inhibition) at 1uM” value turned out to be 3.99%. `COc1ccc(NC(=O)CC2(CC(=O)O)CCCC2)cc1`: the “hERG current change (%, negative = inhibition) at 1uM” value is 14.2%. The value for `CN(CCOc1ccc(Cl)cc1)C(=O)CN1C(=O)NC2(CCCC2)C1=O` was 3.12%; that for `CSc1ccccc1Sc1cc(C(=O)O)c2ccccc2n1` was 11.9%. The value for `CCn1c(C)[n+](CC)c2ccc(C(=O)N(C)c3ccccc3)cc21.[I-]` was 25.5%; that for `O=C(CCC(=O)N1CCSc2ccccc21)NCc1cccc(Cl)c1` was 2.96%. For `Cc1cc([N+](=O)[O-])nn1CC(=O)NCc1ccc(Cl)cc1` the value was 0.88%; for `COc1ccc(/C=C(/Sc2nnc(-c3ccc(Cl)cc3)o2)C(=O)O)cc1`, 10%; for `C=CCN(c1ccccc1)S(=O)(=O)c1cccc(C(=O)N2CCN(c3ncccn3)CC2)c1`, 0.212%.

`CC(C)(C)c1ccc(S(=O)(=O)N2CCN(CC(=O)NC(=O)NC3CCCCC3)CC2)cc1`: the “hERG current change (%, negative = inhibition) at 1uM” value is 11.1%. For `NNc1nc2c(Cl)ccc(Cl)c2s1` the value was 13.9%. The value for `COc1cccc(NC(=O)CNCc2ccccc2)c1.Cl` was 21.7%; that for `Cc1ccc(S(=O)(=O)NNC(=O)c2sc3nc(C)cc(C)c3c2-n2cccc2)cc1` was 10.6%. For `CCOc1ccc(C(=O)NNC(=O)c2cc(S(=O)(=O)N3CCOCC3)ccc2Cl)cc1` the value was 3.73%; for `CCN1CCN(Cc2oc(CO)cc(=O)c2O)CC1`, -4.58%.

For `O=C(NCc1cccnc1)C1CCN(S(=O)(=O)N2CCC3(CC2)OCCO3)CC1`, the “hERG current change (%, negative = inhibition) at 1uM” value was found to be 4.15%.

As to `COCc1cc(C)nc(SCC[N+](C)(C)CC(=O)Nc2ccccc2)c1C#N.[Cl-]`, the “hERG current change (%, negative = inhibition) at 1uM” value stood at 7.03%.

On to `CCc1ccc(C(=O)NCc2cccs2)s1`, for which the “hERG current change (%, negative = inhibition) at 1uM” value was 2.67%.

Consider `O=C(CC(=O)Nc1ccc(F)cc1)Nc1ccc(F)cc1`, for which the “hERG current change (%, negative = inhibition) at 1uM” value is recorded as 9.83%. For `CCc1ccc(/C=C2\SC(=S)N(CCC(=O)NCCCN3CCOCC3)C2=O)cc1` the value was 6.25%; for `O=C(CSc1nnc(-c2cccnc2)n1CCN1CCCCC1)Nc1cccc(Cl)c1`, -80.3%.

In the case of `CNc1ncc(C(=O)c2ccccc2)s1`, the “hERG current change (%, negative = inhibition) at 1uM” value is -10.3%. For `CCc1ccccc1NC(=O)CCNS(=O)(=O)c1cc(Br)cnc1N` the value was 0.979%; for `O=c1cc(N2CCN(c3ccccc3)CC2)[nH]c(=O)n1Cc1ccc(F)cc1`, -6.2%; for `CCOC(=O)c1sc(=NC(=O)c2ccc(S(=O)(=O)N3CC(C)OC(C)C3)cc2)n(C)c1C` (centres unmarked), 5.26%. The value for `O=C(OCc1ccccc1)c1cccnc1Cl` was 7.35%. As for `Cc1cccc(OCCn2c(=O)oc3ccc(C)cc32)c1`, the “hERG current change (%, negative = inhibition) at 1uM” value turned out to be 9.97%. For `O=C(NCCCN1CCCC1=O)c1cc2nc(-c3ccco3)cc(C(F)(F)F)n2n1` the value was 12.2%. For `CCOc1cc(C(=O)Nc2cc(F)ccc2C)ccc1OCC(=O)N1CCOCC1` the value was 1.06%; for `CN1CCC23c4ccccc4NC1C21CCN(C)C3Nc2ccccc21`, 9.69%; for `Cc1ccc(Oc2ccc(NC(=O)CSc3n[nH]c(N)n3)cc2)cc1`, 7.85%. The value for `C/C(CC(=O)Nc1cccnc1)=N\NC(=O)c1ccc([N+](=O)[O-])c(Cl)c1` was -3.98%; that for `COc1ccc(C(=O)NCCc2cnc[nH]2)cc1OC` was 16.7%; that for `COc1ccccc1/C=C/CN1CCCC(CO)(Cc2cccc(Cl)c2)C1` (centres unmarked) was -1.86%.

Regarding `COc1ccc(C(=O)COC(=O)CCC(=O)Nc2ccc(C(C)=O)cc2)cc1`, the “hERG current change (%, negative = inhibition) at 1uM” value is recorded as 8.47%. For `CCOc1ccc(C(=O)NCC(=O)N2CCCCCCC2)cc1` the value was 2.6%; for `CCOc1ccc(NC(=O)CN(C2CCCCC2)S(C)(=O)=O)cc1`, 3.93%; for `COc1ccccc1-c1c(C#N)c(N)nc2c1CCc1ccccc1-2`, 25%. For `Clc1ccc(C2=Nn3c(nnc3-c3cccnc3)SC2)s1` the value was 3.58%. With `COc1ccc(CNC(=O)[C@H](CCSC)NC(=O)N2CCn3c2nc2ccccc23)cc1`, the “hERG current change (%, negative = inhibition) at 1uM” value came to 12.2%. The value for `O=C(NCCCN1CCCC1=O)C1CCN(S(=O)(=O)c2cccc(C(F)(F)F)c2)CC1` was 23.6%; that for `CC(=O)C1=C(O)C(=O)N(Cc2cccnc2)C1c1ccc(C(C)C)cc1` (centres unmarked) was 11.3%.

For the compound `CC(=O)Oc1ccc(/C=C/c2nc3ccccc3c(=O)o2)cc1`, the “hERG current change (%, negative = inhibition) at 1uM” value is reported as 13.7%. Take `Cn1c(/C(C#N)=C(\O)CN2CCN(Cc3ccccc3)CC2)nc2ccccc21`: the “hERG current change (%, negative = inhibition) at 1uM” value was -20%. For `COc1ccc(-c2cc(C(F)(F)F)nc(SCC(N)=O)n2)cc1` the value was 10.8%; for `Cc1ccc(NC(=O)C(=O)c2cn(CC(=O)N3CCCCC3)c3ccccc23)cc1`, 1.63%; for `Cc1ccc2[nH]c(=O)cc(C(=O)OC(C)C)c2c1`, 15.3%. The value for `O=C(CCCOc1ccc(Cl)cc1Cl)Nc1ccccc1C(=O)O` was 4.57%.
